According to article doi:10.1101/2024.12.03.626679, “Structure of the SMYD2-PARP1 Complex Reveals Both Productive and Allosteric Modes of Peptide Binding” (bioRxiv, 2024):

Columns and labels:
Assay in all cases: ELISA; PARP1(518-1014), H3 or H4 coated onto wells (10 mM HEPES pH 7.5, 0.1 M KCl, 3 mM MgCl2), blocked with 1% BSA; SMYD2 proteins added at different concentrations, detected with anti-SMYD2 antibody; four-parameter logistic fit
Conditions in all cases: both partners purified
Histone H4 = target: T1, Histone H4 (UniProt P62805)
T1 construct: Histone H4

Histone H3 = Histone H3 (UniProt P68431)
[1] = target: T2, Human PARP1 (residues 518-1014) (human, UniProt P09874 in part)
T2 construct: also called PARP1(518-1014); PARP1 protein; not shown: 6xHis-SUMO, N-terminal, cleaved
T2 sequence (P09874 518-1014): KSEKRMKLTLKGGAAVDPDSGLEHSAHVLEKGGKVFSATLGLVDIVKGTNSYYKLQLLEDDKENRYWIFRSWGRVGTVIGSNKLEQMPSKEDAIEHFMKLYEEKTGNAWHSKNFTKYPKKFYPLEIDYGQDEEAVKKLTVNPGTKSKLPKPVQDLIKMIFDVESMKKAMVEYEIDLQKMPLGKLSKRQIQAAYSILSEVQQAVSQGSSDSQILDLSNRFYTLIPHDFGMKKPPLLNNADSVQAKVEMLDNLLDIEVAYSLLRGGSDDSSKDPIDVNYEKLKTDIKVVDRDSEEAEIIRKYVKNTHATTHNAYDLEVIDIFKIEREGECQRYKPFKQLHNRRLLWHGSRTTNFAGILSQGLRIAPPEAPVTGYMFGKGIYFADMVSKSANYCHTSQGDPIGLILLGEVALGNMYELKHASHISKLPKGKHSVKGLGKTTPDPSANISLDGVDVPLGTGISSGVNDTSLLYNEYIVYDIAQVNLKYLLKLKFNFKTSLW

Row | EC50 (Histone H4) [µM] | EC50 (Histone H3) [µM] | EC50 [1] [µM] | Binder
1 | 0.095 | 0.085 | 0.085 | SMYD[…]A (enzyme, SMYD2, human, full length, […], with F184A (target lysine access channel); also called F184A mutant; not shown: 6xHis-SUMO, N-terminal, cleaved) not shown
2 | 0.033 | 0.023 | 0.053 | SMYD[…]A/W356A (enzyme, also called L351A/W356A mutant; not shown: 6xHis-SUMO, N-terminal, cleaved) not shown
